# Out of some 420,000 compounds screened, about 64,000 (15%) were called active. This list was built around the results that the source calls inconclusive (neither active nor inactive); the mix of calls is not that of the screen. Calls come from the whole dose curve; as a rule, active = well fitted inhibition curve with a large enough effect; inconclusive = small, poorly fitted or top-dose-only effect; inactive = flat fitted curve, though single readings scatter. No potency is given beside an inconclusive call; the fits are too rough.
# Test: qHTS for Inhibitors of human tyrosyl-DNA phosphodiesterase 1 (TDP1): qHTS in cells in absence of CPT; note: nearly all actives have a fitted effect of over 55% in size
# Conditions: DT40 Tdp1-/- hTDP1 cells, no CPT, ATP luminescence, 48 h; activity change, negative = growth inhibition: at 46.2 µM (top of the series) unless noted
# Summary of the method: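 Luminescent ATP content (CellTiter-Glo) served as the growth readout. Knockout chicken DT40 cells expressing human TDP1 were exposed to compounds without camptothecin for a minimum 48 hr at 37 °C.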
# % is set by controls: 0 for no effect and ±100 for the full control effect; potency is the fitted concentration of half-maximal effect; tags give direction and shape of the fitted curve.
Compound,Potency,"activity change, negative = growth inhibition"
COc1ccc(-c2cc(-c3n[nH]c(=S)n3-c3cc(OC)ccc3OC)[nH]n2)cc1,"inconclusive [inhibitor, single point]",–
Cc1cc(C)cc(OCC(=O)NNC(=S)NC(=O)C2CC2)c1,active: 13 µM,–
Cc1cc(C)cc(NC(=O)Cn2c(=O)n(Cc3ccc4c(c3)OCO4)c(=O)c3oc4ccccc4c32)c1,"inconclusive [inhibitor, single point]",–
Clc1ccc(CN2C3=NCCCN3c3ccccc32)cc1,active: 20.6 µM,–
O=[N+]([O-])c1ccc(S(=O)(=O)NCCS(=O)(=O)N2CCN(c3ccccc3)CC2)cc1,active: 16.4 µM,–
Cc1ccc(C)c(OCCCC(=O)Nc2ccccc2C(N)=O)c1,active: 16.4 µM,–
COc1ccc(NC(=O)C(c2ccc(OC)cc2)n2c(=O)c(-c3ccco3)nc3ccccc32)cc1 (centres undefined),"inconclusive [inhibitor, partial curve]",–
Cc1ccc(SCC(=O)OCC(=O)NCCc2ccc(S(N)(=O)=O)cc2)c(C)c1,inactive,–
COc1ccccc1CCNC(=O)CN1C(=O)NC2(CCCC2)C1=O,inactive,–
N#CCSc1nc2ccccc2c(=O)n1-c1ccccc1,–,inconclusive: -31.2% [inhibitor]
COc1ccc(-c2csc(NC3OC(=O)c4c3ccc(OC)c4OC)n2)cc1OC (centres undefined),active: 14.6 µM,–
COCCCNC(=O)c1cccc2c(-c3ccc(O)c(OC)c3)coc12,"inconclusive [inhibitor, partial curve, poor fit]",–
C[C@H](CO)N1C[C@H](C)[C@@H](CN(C)C(=O)NC2CCCCC2)Oc2c(NC(=O)Cc3ccccc3)cccc2C1=O,inactive,–
COC(=O)CCC(=O)OC1(C)C(=O)C2=CN(CCc3c[nH]c4ccccc34)C(c3ccc(OC)cc3)=CC2=C(Br)C1=O (centres undefined),"inconclusive [inhibitor, single point]",–
O=C(CN(C(=O)CCC(=O)Nc1nccs1)c1cccc(F)c1)NCc1ccccc1,–,inconclusive: -31.8% [inhibitor]
Cc1cccc(C)c1NC(=O)COC(=O)c1ccccc1Nc1ccccc1,active: 9.2 µM,–
CCCCN1CNC(=S)N(c2ccc(C(=O)OCC)cc2)C1,"inconclusive [inhibitor, single point]",–
COC(=O)c1ccccc1NC(=O)C1CCCN(S(=O)(=O)c2ccc(F)cc2)C1 (centres undefined),active: 10.3 µM,–
COc1ccc(N(CC(=O)N/N=C/c2ccc(N(C)C)cc2)S(=O)(=O)c2ccccc2)cc1,inactive,–
O=C1c2ccc(-c3ccc(F)cc3OCc3ccccc3)cc2S(=O)(=O)c2cccc(C(=O)N3CCN(c4ncc(Cl)cc4Cl)CC3)c21,"inconclusive [inhibitor, single point]",–
COc1cc(SC)ccc1C(=O)Nc1ccc(OCC(=O)N2CCOCC2)cc1,"inconclusive [inhibitor, partial curve]",–
CC(OC(=O)CC(C)c1ccccc1)C(=O)Nc1ccc(Cl)cn1 (centres undefined),inactive,–
Cc1ccc(NC(=O)c2cc(=O)c3ccccc3o2)cc1S(=O)(=O)N1CCCCC1,active: 20.6 µM,–

Compound,Potency,"activity change, negative = growth inhibition"
Cc1ccc(-n2nc(C)c(C3(O)C(=O)N(C(C)C)c4ccccc43)c2N)cc1 (centres undefined),active: 11.6 µM,–
Cc1ccc(NC(=O)c2cc(-c3ccco3)nc3ccccc23)cc1S(=O)(=O)N1CCOCC1,active: 29.1 µM,–
O=C(COC(=O)/C=C/c1ccccc1)NCCc1ccc(F)cc1,inactive,–
COc1ccc(C(=O)Nc2c(-c3ccccc3)nc3ccccn23)c(OC)c1,–,inconclusive: -32.5% [inhibitor]
Cc1ccc(-c2nc(CS(=O)(=O)CC(=O)NC3CCCCC3C)c(C)o2)cc1 (centres undefined),"inconclusive [inhibitor, single point]",–
Cc1cccc(CNC(=O)Cn2ccc3cc(S(=O)(=O)N4CCC(C)CC4)ccc32)c1,"inconclusive [inhibitor, single point]",–
COc1ccc(CN2C(=O)C(C)Nc3ncnc(N4CCN(c5ccccc5)CC4)c32)cc1 (centres undefined),"inconclusive [inhibitor, single point]",–
CCC(Sc1nc(C)cc(C)n1)C(=O)NC1=NN=C(c2ccc(C)cc2)CS1 (centres undefined),"inconclusive [inhibitor, single point]",–
COc1ccc(Cc2nc3ccc(C(=O)N4CCN(C)C(C)C4)cc3o2)cc1OC (centres undefined),active: 18.4 µM,–
Cc1ncc(CN2CCCC(C(=O)Nc3ccc(-c4cccc(F)c4)cc3)C2)n1C (centres undefined),"inconclusive [inhibitor, single point]",–
O/N=C(\c1ccc2c(c1)OCCO2)C1CCCCC1,inactive,–
COc1ccc(-c2ccc(CCC(=O)O)n2-c2cc(Cl)ccc2O)cc1,"inconclusive [inhibitor, single point]",–
O=C(Nc1nnc(CC(c2ccccc2)c2ccccc2)s1)c1ccco1,"inconclusive [inhibitor, single point]",–
O/N=C(/c1ccc(Cl)cc1)C1CC1c1ccccc1 (centres undefined),"inconclusive [inhibitor, single point]",–
CN(Cc1ccccc1)C(=O)COc1ccccc1Cl,–,inconclusive: -31.1% [inhibitor]
O=C(Cn1c(=O)n(Cc2nc(-c3ccccc3)no2)c(=O)c2cc3c(cc21)OCO3)Nc1cccc(C(F)(F)F)c1,active: 9.2 µM,–
COc1ccc(NC(=O)CN(C)C(=O)c2cc3c(s2)CCC(C)C3)cc1 (centres undefined),"inconclusive [inhibitor, full curve, poor fit]",–
Brc1cccc(-c2nc3c4ccccc4ccn3c2Cc2ccsc2)c1,"inconclusive [inhibitor, single point]",–
CN1CCN(C(=O)C2=NOC3(C2)C(=O)Nc2ccccc23)CC1 (centres undefined),inactive,–
CC(C)OP(=O)(c1ccc(N(C)C)cc1)C(O)c1ccc(N(C)C)cc1 (centres undefined),inactive,–
Cc1cc(C)n(CC(O)Cn2ccc3ccccc32)n1 (centres undefined),inactive,–
Cc1ccc(S(=O)(=O)N2CCOCC2)cc1NC(=O)COC(=O)CCOc1ccc(C(C)(C)C)cc1,"inconclusive [inhibitor, partial curve]",–
COc1ccc(CNC(C)C23CC4CC(CC(C4)C2)C3)c(OC)c1OC (centres undefined),active: 14.6 µM,–

Compound,Potency,"activity change, negative = growth inhibition"
O=c1[nH]c(=O)n(C2OC(CO)C(O)C2O)c2c1CCCC2 (centres undefined),inactive,–
Cc1onc(-c2c(Cl)cccc2Cl)c1C(=O)N1CCCCC1,"inconclusive [inhibitor, partial curve]",–
Cc1cc(C)nc(NC(=O)c2ccc([N+](=O)[O-])o2)n1,active: 13 µM,–
Cn1c(N2CCOCC2)nc2c1c(=O)n(Cc1ccc(Cl)cc1)c(=O)n2C,"inconclusive [inhibitor, single point]",–
Cc1ccc(S(=O)(=O)N2CCOC23CCN(C(=O)c2ccccc2Br)CC3)cc1,"inconclusive [inhibitor, single point]",–
COc1cccc(NC(=S)NCc2ccc3c(c2)cc(C)n3C)c1,active: 16.4 µM,–
CCOC(=O)c1c(C)[nH]c(C)c1S(=O)(=O)N(C)CC(=O)Nc1cccc(C(F)(F)F)c1,inactive,–
CC(C)C[C@@H](N)c1nnc(SCC(=O)c2ccc(Cl)cc2)o1,"inconclusive [inhibitor, partial curve]",–
Cc1ccc(-c2nn(-c3ccccc3)cc2C(=O)NCC(c2cccs2)N2CCOCC2)cc1 (centres undefined),"inconclusive [inhibitor, single point]",–
N#CCSc1nc2cc(C(=O)N3CCC(C(N)=O)CC3)ccc2c2nc3ccccc3n12,"inconclusive [inhibitor, single point]",–
COc1ccc(-c2nc3cnc(N4CCNCC4)nc3n(CCC#N)c2=O)cc1,"inconclusive [inhibitor, single point]",–
CCCN1CCN(CC(=O)Nc2cc(OCC)ccc2OCC)CC1,"inconclusive [inhibitor, full curve, poor fit]",–
C=CCn1c(SCc2nc3scc(-c4ccccc4)c3c(=O)[nH]2)nnc1-c1ccccc1F,inactive,–
Nc1nnc(CC(=O)N/N=C/c2cccc(OCCOc3ccccc3)c2)s1,"inconclusive [inhibitor, single point]",–
Nc1nc(N)c(N=O)c(Nc2ccc(Cl)c(Cl)c2)n1,active: 7.31 µM,–
COc1ccc(OC)c(/C=C/C(=O)OCC(=O)Nc2cccc(C(C)=O)c2)c1,"inconclusive [inhibitor, single point]",–
COC(=O)c1c(C)[nH]c(C(=O)C(C)OC(=O)C2CC(=O)N(c3ccc(C)cc3)C2)c1C (centres undefined),"inconclusive [inhibitor, partial curve]",–
CCCCC/C=C\C[C@@H](O)/C=C/C=C/C=C\[C@@H](O)CCCC(=O)O,–,inactive: -3.6% [at 0.628 µM]
O=C(OCc1cn([C@H]2CN(C(=O)C3CCCCC3)[C@@H](c3ccc(Cl)cc3)C[C@@H]2O)nn1)c1ccccc1,active: 20.6 µM,–
Oc1ccc(Br)c(CN2CCN(c3ncc(Cc4ccccc4)cn3)CC2)c1,"inconclusive [inhibitor, single point]",–
CCOCCCN(CCC#N)S(=O)(=O)c1ccc(S(=O)(=O)N2CCCC2)cc1,"inconclusive [inhibitor, partial curve]",–
O=C(O)c1ccc(N2CCN(C(c3ccccc3)c3ccccc3)CC2)c([N+](=O)[O-])c1,"inconclusive [inhibitor, single point]",–
CC(C)CCc1noc(CN(CC2CCC2)CC2CCCO2)n1 (centres undefined),inactive,–

# Reference: PubChem BioAssay AID686978 (National Center for Advancing Translational Sciences (NCATS), 2013)
